The test has as its system LG0567-F671-PDC multi-cell spheroid viability. As to the kind of experiment: Anticancer human tumor LG0567-F671-PDC patient-derived lung adenocarcinoma cell line growth inhibition [IpAb]. The note with it: for viability, T/C: stronger effect = lower value. The source says: Combinatorial screen of targeted agents with ipatasertib and abemaciclib in multi-cell type tumor spheroids
A high-throughput screen of multi-cell type tumor spheroids was designed to identify active combinations of targeted small molecules and ipatasertib or abemaciclib. Complex spheroids include a stromal component modeled by human endothelial cells (HUVEC) and fibroblasts modeled by human mesenchymal stem cells (MSCs). The concentration ranges selected for each drug and investigational agent were based upon clinically achievable concentrations if the clinical Cmax of the agent was known.
Compounds. The drugs and investigational agents: ipatasertib (NSC767898), abemaciclib(NSC768073), selumetinib (NSC741078), trametinib (758246), adavosertib (NSC754352), everolimus (NSC733504), sapanisertib (NSC764658), vemurafenib (NSC761431), venetoclax (NSC766270), copanlisib (NSC809693), apelisib (NSC765974), palbociblib (NSC758247), vemurafenib (NSC761431), dabrafenib (NSC764134), ravoxertinib (NSC781343), BMS-387032 (NSC767048), sotorasib (NSC818433), talazoparib (NSC767125) and afursertib (NSC778305), were obtained from the National Cancer Institute (NCI) Developmental Therapeutics Program Chemical Repository. The FDA-approved anticancer drug set is available from the NCI Developmental Therapeutics Program. […] The stock solutions were prepared in dimethyl sulfoxide (DMSO, Sigma-Aldrich, St. Louis, MO, cat. D2650) at 800-fold the tested concentration and stored at -70 degrees C prior to their use. All drugs and investigational agents were tested over a range starting from a high concentration at or near the clinical Cmax and decreasing in half-log increments. If the clinical Cmax for an agent had not been determined, the highest concentration tested was 10 microM.
NCI60 Cell Culture. NCI60 cell lines were obtained from the NCI Developmental Therapeutics Program Tumor Repository. For each lot of cells, the Repository performed Applied Biosystems AmpFLSTR Identifiler testing with PCR amplification to confirm consistency with the published Identifier STR profile for each cell line. Cells were kept in continuous culture for no more than 20 passages. The optimal seeding densities for each of the cell lines at each time point assessed were determined prior to performing the concentration response studies. Briefly, the NCI60 human tumor lines were grown as monolayers in RPMI 1640 medium supplemented with 10% FBS and 2 mmol/L L-glutamine.
An additional 9 lines were from the NCI60 cell line panel including MDA-MB-231 breast carcinoma, MDA-MB-468 breast carcinoma, MCF7 breast carcinoma, Hs578T breast carcinoma, MALME-3M melanoma, SK-MEL-2 melanoma, SK-OV-3 ovarian carcinoma, DU-145 prostate carcinoma, PC-3 prostate carcinoma, all cell lines along with major genetic alterations are listed on Table 2. Pooled donor human umbilical vein endothelial cells (HUVEC, Lonza, cat. CC-2519) and human mesenchymal stem cells (hMSC, Lonza, cat. PT-2501) were purchased from Lonza (Walkersville, MD).
PDMR cell lines were grown in complete medium (DC medium): Dulbecco's modified Eagle's medium (DMEM)/F12 supplemented with 5% fetal bovine serum (FBS), 2 mM L-glutamine, 100 U/mL penicillin and 100 µg/ml streptomycin, 0.4 µg/ml hydrocortisone, 10 ng/ml epidermal growth factor (EGF) recombinant human protein, 24 µg/mL adenine, and 0.1 mg/mL primocin. During culture from frozen stock vials, PDMR cells were cultured in the same medium containing 10 µM Y-27632 (see Table 3). The PDCs were cultured in complete DMEM/F12 media without 10 microM Y-27632 dihydrochloride for at least two passages prior to the screen. The pooled donor HUVEC and hMSC were cultured in endothelial cell growth medium 2 (PromoCell, Heidelberg, Germany, cat. C-22011) and mesenchymal stem cell growth medium 2 (PromoCell, cat. C-28009), respectively. For all experiments, HUVEC and hMSC were used at passages </=5.
[…]

Each structure is given as a SMILES string. For part of its entries the source gives two or more results. This is not the full list of results. The source may hold further records. Values given together are repeated measurements (runs, samples, wells, individuals or studies). Additions like (4×) stand for listed records that agree.
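Further: viability read after 7 days of drug exposure.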
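Wherever viability, T/C is given: 100% = DMSO vehicle control luminescence.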

With `CC(C)NCC(C(=O)N1CCN(c2ncnc3c2C(C)CC3O)CC1)c1ccc(Cl)cc1` (centres undefined), the viability, T/C (in general, the result in the treated group divided by that in the control group, in per cent) was 84.4, 90.7, 95, 117, 108 (2×), 66.7, 87, 96, 87.9, 81.4, 90.1, 72.4% (compound alone 0.1 µM); 62.6, 78.6, 87.8, 70, 76.2, 70.2, 74.9, 77.3, 71.8, 65.5, 74.8, 71, 83.4% (compound alone 1 µM); 65, 58.1, 64.7, 88.7, 85.4, 56.2, 60.8, 102, 81, 72.5, 82.9, 66.3, 65.1% (compound alone 3.16 µM).
Regarding `CCN1CCN(Cc2ccc(Nc3ncc(F)c(-c4cc(F)c5nc(C)n(C(C)C)c5c4)n3)nc2)CC1`, the viability, T/C was 94, 91.7, 93.5 (2×), 74.1, 78.9, 72.1, 87.2, 77.4, 89.2, 66.3, 98.8, 86.6% (compound alone 0.01 µM); 104, 71.7, 87.2, 73.1, 81.7, 79.9, 73.3 (2×), 67, 69.8, 56.7, 71.4, 68.8% (compound alone 0.0316 µM); 79.5, 86.5, 67.3, 88.8, 72.5, 69.3, 71.5, 84, 56.4, 63, 53.8, 92.9, 57.2% (compound alone 0.1 µM); 64.4, 77.6, 58.1, 59.7, 52.4, 54.9, 64.2, 70.7, 62.9, 57.6, 49.9, 71.6, 54.3% (compound alone 0.316 µM); 54.6, 63.1, 65.2, 71.1, 73.9, 52.7, 66, 67.6, 53.1, 73.5, 63.9, 95.1, 63% (compound alone 1 µM).
As for `C=CCn1c(=O)c2cnc(Nc3ccc(N4CCN(C)CC4)cc3)nc2n1-c1cccc(C(C)(C)O)n1`, the IC50 (commonly the concentration that inhibits the measured activity by half) (compound alone) is > 10 µM and 360 nM.

Source of the values: PubChem BioAssay AID2060332 (Molecular Pharmacology Branch, DTP, NCI, 2025).
